# Results reported in PubChem BioAssay AID624296 (National Center for Advancing Translational Sciences (NCATS), 2012).
# Out of some 350,000 compounds screened, about 9,900 (2.8%) were called active. The inconclusive results got no clear call from the source; some entries with a clear call stand among them for comparison. The call rests on the fitted dose curve; in most records, active means well fitted activation curve with a large enough effect; inconclusive means small, poorly fitted or top-dose-only effect; inactive means no such curve, though single readings can be large or run the other way. Potencies of inconclusive entries are left out as doubtful fits.
# Assay: A quantitative high throughput screen for small molecules that induce DNA re-replication in MCF 10a normal breast cells. Further: nearly all actives have a fitted effect of over 50% in size. On activity, positive = re-replication: % of control where 0% means no effect.
# Conditions: MCF 10A DNA re-replication, Hoechst nuclear intensity, 48 h; activity, positive = re-replication: at 46.1 µM (top of the series)
# Potency means the concentration at half of the fitted maximal effect; tags describe the fitted curve by direction and shape.
SMILES,Potency,"activity, positive = re-replication"
Cc1ccc(C#N)c(SCc2ccccc2F)n1,inactive,
Cc1ccc(S(=O)(=O)N(C(=O)c2ccncc2)c2ccc(OC(=O)c3ccncc3)c3ccccc23)c(C)c1,"inconclusive [activator, single point]",
CS(=O)(=O)C1=NN2C(=N)/C(=C\c3ccc(OCCOc4ccccc4)cc3)C(=O)N=C2S1,"inconclusive [activator, single point]",
Cc1cccc(N2CCN(C(=O)c3cccc(S(=O)(=O)N4CCCCC4)c3)CC2)c1C,active: 14.6 µM,
CC(C)CCn1c(=O)c2ccccc2c2ccccc2c1=O,"inconclusive [activator, single point]",
CSc1nsc(/C=C/Nc2ccc(F)cc2)c1C#N,"inconclusive [activator, single point]",
Cc1ccc(OCCNC(=O)c2ccc3ccccc3n2)cc1,"inconclusive [activator, full curve, poor fit]",
COCCN(CC1CCCN(C2Cc3ccccc3C2)C1)C(=O)CCC(N)=O (stereo not given),"inconclusive [activator, partial curve, poor fit]",
O=C(Nc1ccc(-c2nc3ncccc3o2)cc1)c1ccco1,"inconclusive [activator, single point]",
Cc1c(/C=N/NC(=O)COc2ccccc2[N+](=O)[O-])c2ccccc2n1C,inactive,
CN(C)c1ccnc2sc3c(=O)n(Cc4ccccc4)cnc3c12,"inconclusive [activator, partial curve, poor fit]",
O=C(Nc1ccc(OC(F)F)cc1)c1ncc(Cl)c(Cl)c1Cl,"inconclusive [activator, partial curve, poor fit]",
CCCCNc1nc2ccccc2[nH]1,inactive,
COC(=O)c1sccc1NC(=S)N1CCN(c2ccc(F)cc2)CC1,"inconclusive [activator, single point]",
C/C(=N\NC(=O)c1ccc(Br)cc1)c1cccc(NC(=O)c2cccnc2)c1,inactive,
CCCNC(=O)[C@@H]1CCCN1C(=O)[C@@H]1Cc2ccccc2CN1,inactive,
Clc1ccc(-c2csc(NNC3=NCCCCC3)n2)cc1,inactive,
O=C(CNC(=O)C(c1ccccc1)c1ccccc1)N/N=C/c1ccc(O)cc1O,"inconclusive [activator, partial curve, poor fit]",
Cc1ccc(OCc2cc(C(=O)Nc3ccccc3)oc2C)cc1,"inconclusive [activator, full curve, poor fit]",
O=C(CSc1cccc[n+]1[O-])c1ccc(-c2ccccc2)cc1,active: 8.2 µM,
CC(C)CNC(=O)COC(=O)c1ccc2c(c1)C(=O)N(Cc1ccco1)C2=O,"inconclusive [activator, single point]",
O=C(NC12CC3CC(CC(C3)C1)C2)N1CCN(C2CCCCC2)CC1,active: 2.06 µM,
Brc1ccc(-c2c[n+]3c(n2-c2ccccc2)SCC3)cc1,"inconclusive [activator, single point]",
O=C(Nc1ccc(Cl)cc1)c1cc2nc(-c3ccco3)cc(C(F)(F)F)n2n1,"inconclusive [activator, full curve, poor fit]",

SMILES,Potency,"activity, positive = re-replication"
O=C(CN1CCCC1)N/N=C/c1ccc(-c2cccc(Cl)c2)o1,inactive,
COc1ccccc1C1CC(=O)Nc2cc3c(cc21)OCCO3 (stereo not given),active: 3.66 µM,
CC(C)(C)OC(=O)N(Cc1ccccc1)Cc1ccccc1OCc1cccc(NC(=O)C2CCC2)c1,"inconclusive [activator, partial curve, poor fit]",
O=C(Nc1ccc(O)cc1)c1ccc(NC(=O)c2ccco2)cc1,"inconclusive [activator, single point]",
COc1cc(C)c(/C=C(\C#N)C(=O)Nc2ccc(C)cc2)cc1C(C)C,"inconclusive [activator, partial curve, poor fit]",
CCOC(=O)C1CCN(S(=O)(=O)CCNC(=O)c2cccc(OC)c2)CC1,"inconclusive [activator, partial curve, poor fit]",
COc1ccc2[nH]c(=O)c(CN(C(C)=O)c3ccc(C)c(C)c3)cc2c1,"inconclusive [activator, single point]",
COc1ccc(N(CC(=O)N/N=C(\C)CCc2ccccc2)S(=O)(=O)c2ccc(C)cc2)cc1,inactive,
CCN1CCN(C(=O)/C(=C/c2ccco2)NC(=O)c2ccccc2)CC1,inactive,
Nc1ccc(Br)cc1Br,"inconclusive [activator, full curve, poor fit]",
Cc1ccc(N(CC#N)C(=O)CS(=O)(=O)c2cccc([N+](=O)[O-])c2)cc1,,inconclusive: -37.8% [activator]
COc1cc(/C=N/n2c(-c3ccc4c(c3)NC(=O)CO4)csc2=Nc2cccc(C)c2)ccc1O,active: 23.1 µM,
COc1ccc(CC(C)CC(=O)Nc2ccc(OC)cc2)cc1 (stereo not given),"inconclusive [activator, partial curve, poor fit]",
COc1ccc2oc(C(=O)OC(C)C(=O)NCc3ccccc3)c(C)c2c1 (stereo not given),"inconclusive [activator, full curve, poor fit]",
O=C(NCCN1CCOCC1)C(=O)NCC1OCCCN1S(=O)(=O)c1ccc(F)cc1 (stereo not given),inactive,
COc1ccc(C=Nc2cccc3c(=O)[nH][nH]c(=O)c23)c2ccccc12,"inconclusive [activator, single point]",
O=C(c1ccccc1)c1cc(Cl)ccc1N1C(=O)C=CC1=O,"inconclusive [activator, full curve, poor fit]",
CC(=O)OCC1=C(C(=O)OC(C)(C)C)N2C(=O)[C@@H](NC(=O)Cc3ccccc3)[C@H]2SC1,"inconclusive [activator, partial curve, poor fit]",
CC(=O)/C=C/c1ccccc1Oc1c(F)c(F)nc(F)c1F,active: 23.1 µM,
O=C(NCc1ccc2c(c1)OCO2)C1CC(=O)N(CCc2ccc(F)cc2)C1 (stereo not given),inactive,
Cc1ccc(C)c(S(=O)(=O)C(C#N)c2nc3ccccc3nc2N2CC(C)OC(C)C2)c1 (stereo not given),"inconclusive [activator, single point]",
O=C(COc1cccc(Br)c1)NN=C1c2ccccc2-c2ccccc21,"inconclusive [activator, single point]",
CC(C)c1ccc(C2=C(O)c3ccccc3C(=O)C2=O)cc1,"inconclusive [activator, single point]",
CC(C)(Oc1ccc(Cl)cc1)C(=O)NCc1n[nH]c(=O)c2ccccc12,"inconclusive [activator, single point]",

SMILES,Potency,"activity, positive = re-replication"
O=C(/C=C/c1cccs1)NC(=S)NNC(=O)Cc1cccs1,"inconclusive [activator, partial curve]",
COC(=O)C1=C(C)NC(=O)/C1=C\c1cc(C)n(-c2ccc(F)cc2)c1C,inactive,
CC1CCN(S(=O)(=O)c2ccc(S(=O)(=O)NCC(=O)C(C)(C)C)cc2)CC1,"inconclusive [activator, single point]",
O=C(Nc1ccc(Br)cc1Cl)c1cnccn1,inactive,
O=c1cc(-c2cccnc2)oc2c1ccc1ccccc12,"inconclusive [activator, full curve, poor fit]",
Cc1ccc(C)c(CSC2=NN3CCCC(=O)N=C3S2)c1,"inconclusive [activator, partial curve, poor fit]",
CC(C)CCNC(=O)CCn1c(=S)oc2ccccc21,inactive,
CN(CC(=O)Nc1ccc(Cl)c(C(F)(F)F)c1)C(=O)/C=C/c1ccco1,"inconclusive [activator, single point]",
O=S(=O)(Nc1nccs1)c1ccc(Cl)cc1,"inconclusive [activator, full curve, poor fit]",
CCOc1ccc(S(=O)(=O)NNS(=O)(=O)c2ccc(C)cc2C)cc1,"inconclusive [activator, partial curve, poor fit]",
CCc1nc(N2CCN(C(=S)NCCCOC)CC2)c2c3c(sc2n1)CCCC3,"inconclusive [activator, single point]",
COc1ccc(C)cc1NC(=O)c1cnc2scc(C)n2c1=O,active: 23.1 µM,
Cc1ccc(-c2cc(C(=O)OCC(=O)NC3CC3)c3ccccc3n2)cc1,inactive,
CN(C)CCCNc1oc(-c2cccc(Cl)c2)nc1C#N,"inconclusive [activator, single point]",
COc1ccc(NC(=O)Cc2c(C)n(C(=O)c3ccc(Cl)cc3)c3ccc(OC)cc23)cc1,inactive,
Cn1c(SCc2ccc(Br)cc2)nc2ccccc2c1=O,inactive,
[O-][n+]1ccccc1SSc1cccc[n+]1[O-],"inconclusive [activator, full curve]",
Cc1ccc(-n2c(N)c(S(=O)(=O)c3ccccc3)c3nc4ccccc4nc32)cc1,inactive,
C=CCN(CC=C)S(=O)(=O)c1ccc(NC(=S)NC(=O)/C=C/c2cccc3ccccc23)cc1,inactive,
COc1ccc(CN(Cc2cccn2C)S(=O)(=O)c2ccccc2)cc1,"inconclusive [activator, full curve, poor fit]",
N#Cc1c(-c2ccccc2)ccn(Cc2ccc(Cl)cc2)c1=O,inactive,
COCCOC(=O)N/C=C\c1nc2ccccc2c(=O)[nH]1,"inconclusive [activator, single point]",
